Experimental data as given in the supplement of paper PMC4967469.
IC50 is the fitted dose that halves viability relative to control wells, and lower means more sensitive; fits outside the tested doses are given as limits. AUC sums up the same curve from the lowest dose to the 256-fold higher top dose; it is 1 without any effect and falls as sensitivity rises. For part of these data: The top dose, if marked as inferred, is not printed in the source and was worked back from the curve model.

Experiments:
Experiment in all cases: Viability of human cancer cell lines after 72 h of drug (GDSC screen)
SL 0101-1 = compound: CC(=O)O[C@@H]1[C@@H](OC(C)=O)[C@@H](O)[C@H](Oc2c(-c3ccc(O)cc3)oc3cc(O)cc(O)c3c2=O)O[C@H]1C [SL 0101-1]; conditions: top dose 10 µM; top dose inferred
Experimental: (§1)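 Human cancer cell lines in 384-well plates, medium with 10% serum, drug for 72 h over a 256-fold dose range (nine 2-fold or five 4-fold steps up to the top dose). Adherent lines were fixed and stained with the nucleic acid dye Syto60, suspension lines read with resazurin; signal relative to control wells, capped at 0 and 100%. One two-parameter sigmoid per drug and line, fitted in a mixed model over all curves with the slope shared within a line.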

Temsirolimus = compound: CO[C@H]1C[C@@H]2CC[C@@H](C)[C@@](O)(O2)C(=O)C(=O)N2CCCC[C@H]2C(=O)O[C@H]([C@H](C)C[C@@H]2CC[C@@H](OC(=O)C(C)(CO)CO)[C@H](OC)C2)CC(=O)[C@H](C)/C=C(\C)[C@@H](O)[C@@H](OC)C(=O)[C@H](C)C[C@H](C)/C=C/C=C/C=C/1C [Temsirolimus]; conditions: top dose 0.2 µM
Experimental: as §1

XMD15-27 = compound: C=CC(=O)Nc1ccc(C(=O)c2sc(Nc3ccc(N4CCN(C)CC4)cc3OC)nc2N)cc1 [XMD15-27]; conditions: top dose 10.24 µM; top dose inferred
Experimental: as §1

Cell Line | AUC (SL 0101-1) | IC50 (SL 0101-1) [nM] | AUC (Temsirolimus) | IC50 (Temsirolimus) [nM] | AUC (XMD15-27) | IC50 (XMD15-27) [nM]
A549 (lung adenocarcinoma, adherent) | 0.983 | > 10000 | 0.502 | 12.7 |  | 
BALL-1 (B-cell leukaemia, suspension) | 0.997 | > 10000 | 0.914 | 147 |  | 
BT-549 (breast, adherent) | 0.979 | > 10000 | 0.692 | 53.9 |  | 
CAKI-1 (kidney, adherent) |  |  | 0.697 | 59.4 | 0.974 | > 10200
CL-34 (large intestine, adherent) | 0.987 | > 10000 | 0.987 | > 200 |  | 
CL-40 (large intestine, adherent) | 0.976 | > 10000 | 0.962 | > 200 |  | 
CML-T1 (chronic myeloid leukaemia, suspension) | 0.976 | > 10000 | 0.656 | 31.2 |  | 
CRO-AP2 (B-cell lymphoma, suspension) | 0.988 | > 10000 | 0.187 | 1.72 |  | 
DIFI (large intestine, adherent) | 0.986 | > 10000 | 0.808 | 109 |  | 
DMS-53 (small cell lung carcinoma, adherent) |  |  | 0.986 | > 200 | 0.988 | > 10200
DOHH-2 (B-cell lymphoma, suspension) | 0.933 | > 10000 | 0.524 | 14.5 |  | 
EFM-19 (breast, adherent) |  |  | 0.657 | 43 | 0.978 | > 10200
EHEB (lymphoid neoplasm, suspension) | 0.959 | > 10000 | 0.698 | 58.9 |  | 
EPLC-272H (lung squamous cell carcinoma, adherent) |  |  | 0.814 | 127 | 0.974 | > 10200
EW-22 (Ewing sarcoma, adherent) | 0.979 | > 10000 | 0.841 | 131 |  | 
G-MEL (melanoma, adherent) |  |  | 0.48 | 11.1 | 0.981 | > 10200
GA-10 (Burkitt lymphoma, suspension) | 0.984 | > 10000 | 0.231 | 2.44 |  | 
H2722 (mesothelioma, adherent) |  |  | 0.855 | > 200 | 0.984 | > 10200
HCC202 (breast, adherent) | 0.975 | > 10000 | 0.973 | > 200 |  | 
HCC2998 (large intestine, adherent) |  |  | 0.975 | > 200 | 0.988 | > 10200
HMV-II (melanoma, adherent) |  |  | 0.85 | > 200 | 0.971 | > 10200
HOP-92 (large cell lung carcinoma, adherent) |  |  | 0.824 | 144 | 0.985 | > 10200
HSC-4 (head and neck, adherent) |  |  | 0.206 | 1.22 | 0.979 | > 10200

Cell Line | AUC (SL 0101-1) | IC50 (SL 0101-1) [nM] | AUC (Temsirolimus) | IC50 (Temsirolimus) [nM] | AUC (XMD15-27) | IC50 (XMD15-27) [nM]
HT55 (large intestine, adherent) |  |  | 0.983 | > 200 | 0.99 | > 10200
Hep 3B2_1-7 (liver, adherent) |  |  | 0.734 | 58 | 0.987 | > 10200
IGROV-1 (ovary, adherent) | 0.977 | > 10000 | 0.878 | > 200 |  | 
IM-9 (myeloma, suspension) | 0.991 | > 10000 | 0.992 | > 200 |  | 
JEKO-1 (B-cell lymphoma, suspension) | 0.938 | > 10000 | 0.455 | 9.48 |  | 
JHH-6 (liver, adherent) |  |  | 0.909 | > 200 | 0.986 | > 10200
JHOS-4 (ovary, adherent) | 0.976 | > 10000 | 0.895 | > 200 |  | 
JHU-029 (head and neck, adherent) | 0.98 | > 10000 | 0.638 | 33 |  | 
Jurkat (T-cell leukaemia, suspension) | 0.991 | > 10000 | 0.965 | > 200 |  | 
KARPAS-1106P (B-cell lymphoma, suspension) | 0.971 | > 10000 | 0.308 | 4.04 |  | 
KASUMI-1 (acute myeloid leukaemia, suspension) |  |  | 0.845 | 145 | 0.94 | > 10200
KATOIII (stomach, semi-adherent) | 0.988 | > 10000 | 0.88 | 176 |  | 
KMS-12-BM (myeloma, suspension) |  |  | 0.733 | 49.8 | 0.949 | > 10200
KNS-62 (lung squamous cell carcinoma, adherent) | 0.945 | > 10000 | 0.618 | 30.5 |  | 
KP-1N (pancreas, adherent) | 0.981 | > 10000 | 0.662 | 36 |  | 
KYSE-70 (oesophagus, adherent) |  |  | 0.905 | > 200 | 0.986 | > 10200
LB647-SCLC (small cell lung carcinoma, semi-adherent) | 0.927 | > 10000 | 0.967 | > 200 |  | 
LB2241-RCC (kidney, adherent) |  |  | 0.64 | 31.9 | 0.984 | > 10200
LOUCY (T-cell lymphoblastic leukaemia, suspension) |  |  | 0.85 | 111 | 0.98 | > 10200
LS-123 (large intestine, adherent) |  |  | 0.933 | > 200 | 0.982 | > 10200
M14 (melanoma, adherent) |  |  | 0.873 | > 200 | 0.986 | > 10200
MDA-MB-175-VII (breast, adherent) |  |  | 0.85 | 175 | 0.988 | > 10200
MEL-HO (melanoma, adherent) | 0.984 | > 10000 | 0.564 | 18.7 |  | 

Cell Line | AUC (SL 0101-1) | IC50 (SL 0101-1) [nM] | AUC (Temsirolimus) | IC50 (Temsirolimus) [nM] | AUC (XMD15-27) | IC50 (XMD15-27) [nM]
MHH-CALL-2 (B-cell leukaemia, suspension) | 0.995 | > 10000 | 0.887 | 123 |  | 
MKN7 (stomach, adherent) | 0.982 | > 10000 | 0.876 | > 200 |  | 
MKN45 (stomach, adherent) |  |  | 0.891 | > 200 | 0.981 | > 10200
MM1S (myeloma, suspension) | 0.968 | > 10000 | 0.566 | 18.8 |  | 
MOLM-16 (acute myeloid leukaemia, suspension) | 0.974 | > 10000 | 0.858 | 133 |  | 
MOLT-16 (T-cell lymphoblastic leukaemia, suspension) | 0.99 | > 10000 | 0.119 | 1.14 |  | 
MS751 (cervix, adherent) |  |  | 0.936 | > 200 | 0.988 | > 10200
Mewo (melanoma, adherent) |  |  | 0.669 | 40.7 | 0.984 | > 10200
NCC010 (kidney, adherent) | 0.986 | > 10000 | 0.853 | 174 |  | 
NCI-H146 (small cell lung carcinoma, suspension) | 0.987 | > 10000 | 0.946 | > 200 |  | 
NCI-H292 (lung adenocarcinoma, adherent) |  |  | 0.494 | 12 | 0.952 | > 10200
NCI-H441 (lung adenocarcinoma, adherent) |  |  | 0.946 | > 200 | 0.981 | > 10200
NCI-H508 (large intestine, semi-adherent) | 0.902 | > 10000 | 0.833 | > 200 |  | 
NCI-H716 (large intestine, suspension) |  |  | 0.819 | 153 | 0.945 | > 10200
NCI-H835 (lung carcinoid, suspension) | 0.982 | > 10000 | 0.961 | > 200 |  | 
NCI-H929 (myeloma, suspension) | 0.955 | > 10000 | 0.512 | 13.4 |  | 
NCI-H1581 (large cell lung carcinoma, semi-adherent) |  |  | 0.895 | > 200 | 0.977 | > 10200
NCI-H1666 (lung adenocarcinoma, semi-adherent) |  |  | 0.813 | 121 | 0.986 | > 10200
NCI-H1734 (lung adenocarcinoma, adherent) |  |  | 0.932 | > 200 | 0.985 | > 10200
NCI-H2029 (small cell lung carcinoma, adherent) |  |  | 0.988 | > 200 | 0.992 | > 10200
NCI-H2122 (lung adenocarcinoma, adherent) |  |  | 0.972 | > 200 | 0.984 | > 10200
NTERA-2 cl.D1 (testis, adherent) |  |  | 0.561 | 18.3 | 0.985 | > 10200
OMC-1 (cervix, adherent) |  |  | 0.858 | 176 | 0.987 | > 10200

Cell Line | AUC (SL 0101-1) | IC50 (SL 0101-1) [nM] | AUC (Temsirolimus) | IC50 (Temsirolimus) [nM] | AUC (XMD15-27) | IC50 (XMD15-27) [nM]
PA-TU-8988T (pancreas, adherent) |  |  | 0.893 | > 200 | 0.987 | > 10200
PANC-08-13 (pancreas, adherent) |  |  | 0.855 | > 200 | 0.983 | > 10200
RCC-ER (kidney, adherent) |  |  | 0.797 | 108 | 0.981 | > 10200
RL95-2 (endometrium, adherent) |  |  | 0.747 | 63.2 | 0.987 | > 10200
RMG-I (ovary, adherent) |  |  | 0.909 | > 200 | 0.983 | > 10200
SCC-4 (head and neck, adherent) |  |  | 0.835 | 168 | 0.984 | > 10200
SISO (cervix, adherent) |  |  | 0.778 | 77.5 | 0.977 | > 10200
SK-MEL-24 (melanoma, adherent) |  |  | 0.819 | 146 | 0.983 | > 10200
SK-N-DZ (neuroblastoma, adherent) |  |  | 0.925 | > 200 | 0.988 | > 10200
SNU-182 (liver, adherent) |  |  | 0.52 | 14.2 | 0.986 | > 10200
SNU-423 (liver, adherent) |  |  | 0.729 | 63.3 | 0.95 | > 10200
SR (lymphoid neoplasm, suspension) |  |  | 0.445 | 8.96 | 0.708 | 2300
SW1990 (pancreas, adherent) |  |  | 0.848 | 191 | 0.985 | > 10200
SiHa (cervix, adherent) |  |  | 0.839 | 167 | 0.987 | > 10200
U-2-OS (osteosarcoma, adherent) |  |  | 0.721 | 56.5 | 0.973 | > 10200
UM-UC-3 (bladder, adherent) |  |  | 0.606 | 23.9 | 0.973 | > 10200
UMC-11 (lung carcinoid, adherent) |  |  | 0.715 | 46.9 | 0.991 | > 10200
VMRC-MELG (melanoma, adherent) |  |  | 0.95 | > 200 | 0.989 | > 10200
VMRC-RCW (kidney, adherent) |  |  | 0.96 | > 200 | 0.989 | > 10200
WM278 (melanoma, adherent) |  |  | 0.803 | 115 | 0.973 | > 10200
no-10 (glioma, adherent) |  |  | 0.98 | > 200 | 0.965 | > 10200
